Values joined by “and” are separate entries in the source; they are usually repeats but may differ in a detail not shown here. Equal values may be shown once. Hit rate of the full screen: of about 16,000 compounds, about 40 (0.2%) were called active. Not shown: some 1% with an inconclusive outcome. Calls follow the shape of the dose curve; as a rule, active = well fitted activation curve with a large enough effect; inconclusive = small, poorly fitted or top-dose-only effect, or another doubt; inactive = no such curve, though single readings can be large or run the other way. The list shows a part of the results.
Target: Rap guanine nucleotide exchange factor 4 (Homo sapiens) (UniProt Q8WZA2)
Sequence of UniProt Q8WZA2 (Q8WZA2 whole entry, looked up): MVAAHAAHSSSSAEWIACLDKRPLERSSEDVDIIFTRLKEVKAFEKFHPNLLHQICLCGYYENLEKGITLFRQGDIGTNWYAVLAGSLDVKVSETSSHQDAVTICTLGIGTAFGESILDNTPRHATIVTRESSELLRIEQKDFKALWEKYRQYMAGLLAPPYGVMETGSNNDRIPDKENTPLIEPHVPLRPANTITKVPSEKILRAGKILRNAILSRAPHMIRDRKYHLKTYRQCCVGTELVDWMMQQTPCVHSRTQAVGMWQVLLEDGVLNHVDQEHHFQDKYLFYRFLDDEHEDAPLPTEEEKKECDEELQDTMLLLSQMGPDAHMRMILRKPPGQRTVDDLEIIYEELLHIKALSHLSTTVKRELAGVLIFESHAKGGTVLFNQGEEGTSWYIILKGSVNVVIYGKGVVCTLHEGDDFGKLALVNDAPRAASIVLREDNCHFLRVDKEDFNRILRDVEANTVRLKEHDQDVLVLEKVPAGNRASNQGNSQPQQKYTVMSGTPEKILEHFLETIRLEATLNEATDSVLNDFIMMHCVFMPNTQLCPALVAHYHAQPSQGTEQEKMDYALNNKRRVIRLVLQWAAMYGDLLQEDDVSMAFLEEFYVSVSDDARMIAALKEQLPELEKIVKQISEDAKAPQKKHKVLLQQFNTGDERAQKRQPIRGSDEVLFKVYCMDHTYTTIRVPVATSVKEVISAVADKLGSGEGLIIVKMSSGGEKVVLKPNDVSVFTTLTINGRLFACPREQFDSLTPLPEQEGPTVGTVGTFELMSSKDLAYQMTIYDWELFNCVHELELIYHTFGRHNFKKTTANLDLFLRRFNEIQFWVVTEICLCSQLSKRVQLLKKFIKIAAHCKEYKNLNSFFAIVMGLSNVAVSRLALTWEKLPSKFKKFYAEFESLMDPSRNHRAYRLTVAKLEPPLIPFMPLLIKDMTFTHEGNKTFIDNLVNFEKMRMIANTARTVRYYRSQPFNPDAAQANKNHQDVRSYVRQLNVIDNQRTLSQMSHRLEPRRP
Experiment: Validation qHTS for agonist of cAMP-regulated guanine nucleotide exchange factor 4 (EPAC2);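 also: exchange makes BODIPY-GDP fluorescence drop when released from Rap1B; series mostly up to about 150 µM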
Settings: EPAC2 Rap1B BODIPY-GDP exchange, fluorescence; activation: active compounds read high
Summary of the method: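 Fluorescent exchange assay: 100 nM EPAC2 with 250 nM RAP1B-BODIPY-GDP and 50 uM GDP; compound added, 5 min at room temperature, then read (ex 480/em 540 nm) every 5 min for 30 min. Normalized to 6.5 mM cAMP agonist control.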
% is scaled to controls: 0 for no effect and ±100 for the full control effect.

activation, inactive:
COc1ccc(-c2nc3cnc(N4CCN(C)CC4)nc3n(CCc3ccccc3)c2=O)cc1 -2.85%, Cc1nc2cnc(Oc3ccccc3)nc2n(C)c1=O 4.42%, N=C(N)SCCN -9.86% and -8.89% and -23.9%, O=c1c(-c2cccs2)nc2cnc(N3CCOCC3)nc2n1CCc1ccccc1 9.41%, Nc1ncnc2c1c(I)cn2C1OC(CO)C(O)C1O (configuration not stated) -12.9% and 5.47% and 1.53%, Cc1cc(-c2cc(F)cc3c2OC(CNC(=O)[C@@H]2CCC(=O)N2)C3)ccc1F (some centres not stated) -4.66%, O=C(O)/C=C/C=C/c1ccccc1 -0.131%, O=C(c1ccc(N2CCC(NCCCn3ncc4ccccc43)CC2)cc1)N1CCOCC1 -9.12%, CCCCCCCCCC[n+]1ccc(/C=C/c2c(C)[nH]c3ccccc23)c2ccccc21 0.288%, NC(C(=O)NC1C(=O)N2C(C(=O)O)=C(Cl)CSC12)c1ccccc1 (configuration not stated) 17%, O=C(CO)[C@@H](O)[C@H](O)[C@@H](O)CO -10.5%, COC(=O)CC1C(=O)NCCN1C(=O)CN1Cc2ccccc2OC(c2ccccc2)C1 (configuration not stated) -8.45%, N[C@](CC1c2ccccc2Oc2ccccc21)(C(=O)O)[C@@H]1C[C@@H]1C(=O)O -21.4%, Cc1ccc(C(=O)C(C)CN2CCCCC2)cc1 (configuration not stated) -14% and -6.5%, CNCC[C@@H](Oc1ccccc1C)c1ccccc1 2.9% and -15.6%, c1ccc(CN2CCC3(CCCc4ccccc43)CC2)cc1 -43.4%, CN(C)c1ccc(N2[C@@H](CC(=O)O)c3cc(C(F)(F)F)ccc3S2(=O)=O)cc1 -26.7%, NS(=O)(=O)C#Cc1ccccc1 -23.4%, Cc1ccc(CNc2nc(C)c(-c3ccn(CCN4CCOCC4)n3)s2)o1 -14.8%, CC(=O)C1=C(O)C=C2Oc3c(C(C)=O)c(O)c(C)c(O)c3C2(C)C1=O (configuration not stated) -12%, O=C(CCCCC(=O)Nc1c(I)cc(I)c(C(=O)O)c1I)Nc1c(I)cc(I)c(C(=O)O)c1I 15.4% and -6.68%, CC(C)Cc1nc2cc(NS(=O)(=O)N(C)C)cc(C(=O)N3CCOCC3)c2n1C -17.8%, COC(=O)N1CCC[C@@]2(CCN(c3ccncc3)C2)C1 -10.5%, CN(C)c1ncc2ncc(=O)n(Cc3ccc(F)cc3)c2n1 -6.61%, Cc1ccc(C(=O)[C@@H]2[C@H]3C4COC(O4)C(=O)[C@@H]3[C@H]3C=Cc4ccccc4N32)cc1 (some centres not stated) 8.83%, COc1ccc(OC)c(C(=O)N2CCOc3ccc(C(C)(O)CN(C)C)cc3C2)c1 (configuration not stated) -24.2%, CCC1(C2CCN(Cc3ccc(OC)cc3)CC2)NC(=O)N(CC2COc3ccccc3O2)C1=O (configuration not stated) -13.5%, Cc1ccc2nc(N3CCCCCC3)c(CN(CC3CCCO3)C(=O)c3cncs3)cc2c1 (configuration not stated) 3.89%, COc1ccc(CNc2ccnc(-c3cccnc3)n2)c(OC)c1 0.781%, CNC(=O)[C@H]1O[C@H](n2cnc3c(NCc4cccc(I)c4)ncnc32)[C@@H](O)[C@@H]1O 5.04%, O=C(Nc1cccc(F)c1)N1CC2(CCN(S(=O)(=O)c3ccccc3)CC2)C1 -2.3%, CCC1C(=O)NCCN1Cc1ccc2c(c1)CN(Cc1cc(OC)c3c(c1)OCO3)CCO2 (configuration not stated) -0.295%, CCCCCCCCCCCCCCCC(=O)OCC(COC(=O)CCCCCCCCCCCCCCC)OC(=O)CCCCCCCCCCCCCCC -14.5%, C[C@@H](C(=O)O)c1ccc(-c2ccccc2)c(F)c1 -12.2%, CC1=C2C(=COC(C)C2C)C(=O)C(C(=O)O)=C1O (configuration not stated) -7.76%, CC(Cc1ccc(O)c(O)c1)C(C)Cc1ccc(O)c(O)c1 (configuration not stated) 9.28%, COc1cccc(-c2nccc(NCCc3c[nH]c4ccc(OC)cc34)n2)c1 9.54%, COC(=O)[C@@H]1[C@H]2SC(C)(C)[C@H](C(=O)OC)N2C(=O)N1Cc1cc2ccccc2n1S(=O)(=O)c1ccccc1 1.41%, COC(=O)[C@@H]1CCCN1Cc1ccc2c(c1)CN(Cc1nccs1)CCO2 -10.9%, O=C(O)Cc1cc(I)c(Oc2ccc(O)c(I)c2)c(I)c1 -18% and -15.4%, O=S1(=O)CCO[C@H]2CCCC[C@@H]2N1Cc1ccccc1Br -4.01%, COc1cc(/C=C/C(=O)c2c(O)cc(C)oc2=O)ccc1O -18.5%, C/C=C/c1ccc(O)c(OC)c1 -2.9%, Cc1ccc2cc(CNC(C)c3cccc4ccccc34)c(N3CCC(O)CC3)nc2c1 (configuration not stated) -0.607%, Cn1c(=O)c(-c2cc(F)cc(F)c2)nc2cnc(Nc3ccccc3)nc21 2.39%, COc1cc(C(C)=O)cc(OC)c1O -7.68%, COc1ncc2nc(-c3cc(F)cc(F)c3)c(=O)n(-c3ccccc3)c2n1 5.79%, CCN(CC)CCCN(c1ccccc1)C1Cc2ccccc2C1 -20.4% and -45.4%, CCNC(=O)[C@@H]1CCCN1C(=O)[C@H](CCCN=C(N)N)NC(=O)[C@H](CC(C)C)NC(=O)[C@@H](CC(C)C)NC(=O)[C@H](Cc1ccc(O)cc1)NC(=O)[C@H](CO)NC(=O)[C@H](Cc1c[nH]c2ccccc12)NC(=O)[C@H](Cc1cnc[nH]1)NC(=O)[C@@H]1CCC(=O)N1 0.972%, Nc1cccc2[nH]cnc12 -4.63%, CN(C)Cc1ccccc1-c1nc(N2CCOCC2)c2ccccc2n1 -8.14%, Cc1oc(=O)oc1CN1CCN(c2cc3c(cc2F)c(=O)c(C(=O)O)c2n3C(C)S2)CC1 (configuration not stated) -13.1%, CN1CCN(c2ncc3nc(-c4cccs4)c(=O)n(Cc4cccs4)c3n2)CC1 -15%, Cc1noc(C)c1-c1ccc2ncnc(N(C)Cc3ccco3)c2c1 -2.45%, COc1cc(=O)n2c(c1C(=O)N(C)Cc1nccs1)CCN(Cc1cc(C)cc(C)c1)CC2 -9.88%, C[C@H](Cc1ccccc1)Nc1ncnc2c1ncn2[C@@H]1O[C@H](CO)[C@@H](O)[C@H]1O -2.48% and -42.4%, Cc1ccccc1-c1cncnc1N1CCN(C)CC1 0.21%, COc1ccccc1CN1CC[C@@]2(CCCN(C(=O)c3cnccn3)C2)C1 6.01%, COc1cc(-c2c(-c3cc(OC)c(OC)c(OC)c3)noc2C)ccc1F -11.7%, COc1cc(O)c(C(=O)/C=C/c2ccc(O)c(OC)c2)c(OC)c1 -2.96%, Cc1cc(OI)c(C(C)C)cc1-c1cc(C(C)C)c(OI)cc1C 5.44%, CO[C@@H]1[C@@H](O[C@@H]2O[C@H](C)[C@@H](O[C@H]3C[C@@](C)(O)[C@@H](O)[C@H](C)O3)[C@H](N(C)C)[C@H]2O)[C@@H](CC=O)C[C@@H](C)[C@@H](O[C@@H]2CC[C@H](N(C)C)[C@@H](C)O2)/C=C/C=C/C[C@@H](C)OC(=O)C[C@H]1OC(C)=O 17%, Cc1noc(C)c1-c1nccc(NCCN2CCOCC2)n1 -2.24%, Cc1nc([N+](=O)[O-])cn1-c1ccc([N+](=O)[O-])cc1 -0.471%, Cc1cccc(CNc2cc(-c3ccccc3CN(C)C)ncn2)c1 -7.37%, CC(O)c1nc2ccccc2[nH]1 (configuration not stated) 0.34%, CN(C)C(=O)c1ccc(-c2nc(N(C)Cc3ccco3)c3ccccc3n2)cc1 -8.18%, O=C(Nc1ccccc1)N1CC2(CCN(C(=O)c3ccncc3)CC2)C1 -5.5%, CC(=O)OCC(=O)[C@@]12OC3(CCCC3)O[C@@H]1C[C@H]1[C@@H]3CCC4=CC(=O)C=C[C@]4(C)[C@@]3(F)[C@@H](O)C[C@@]12C -7.89%, COc1ccc(Oc2ncc3nc(CCc4ccccc4)c(=O)n(C[C@H]4CCCO4)c3n2)cc1 -17.4%, N=C(N=C(N)N)N1CCOCC1 12.3%, Nc1ccn([C@@H]2O[C@H](CO)[C@@H](OP(=O)(O)O)[C@H]2O)c(=O)n1 -14.2%, c1ccc(CNc2nc(-c3cccnc3)nc3ccccc23)cc1 -9.11%, Nc1nc(N)c(N=O)c(N)n1 -6.66%, C[C@H](O)CO[C@H]1[C@H]2O[C@H]3[C@H](O)[C@@H](O)[C@@H](O[C@H]4[C@H](O)[C@@H](O)[C@@H](O[C@H]5[C@H](O)[C@@H](O)[C@@H](O[C@H]6[C@H](O)[C@@H](OC[C@H](C)O)[C@@H](O[C@H]7[C@H](O)[C@@H](OC[C@H](C)O)[C@@H](O[C@H]8[C@H](O)[C@@H](O)[C@@H](O[C@@H]([C@@H]1O)[C@@H](CO)O2)O[C@@H]8CO)O[C@@H]7CO)O[C@@H]6CO)O[C@@H]5CO)O[C@@H]4CO)O[C@@H]3CO 6.8%, COc1cc2nc(CN(CCO)C3CS(=O)(=O)CC3O)nc(N3CCCCC3)c2cc1OC (configuration not stated) 2.38%, CCOC(=O)N1CCN(c2nc(CN3CCCCC3CCO)nc3c(C)cccc23)CC1 (configuration not stated) -1.27%
